Where “and” joins values, the source holds several entries; their conditions need not be identical. Equal values may be shown once. Further values from the same series stand in other lists.
Experiments:
WI‐26 VA4 cells [1] = experiment: Collagen ELISA (secreted pro‐collagen I)
WI‐26 VA4 cells [2] = experiment: CellTiter‐Glo assay (cytotoxicity)

Cc1c(Cl)ccc2c1ncn2CC(=O)C[C@H]1NCCC[C@@H]1O [DWN11748]
Collagen, % of control (single replicates per experiment) (WI‐26 VA4 cells [1]; 100 nM, 0.1 µM): 76.16 % of control and 81.70 % of control and 82.66 % of control | Collagen, % of control (single replicates per experiment) (WI‐26 VA4 cells [1]; 300 nM, 0.3 µM): 42.02 % of control and 40.95 % of control and 51.23 % of control and 48.10 % of control and 44.07 % of control and 44.64 % of control and 52.81 % of control and 50.89 % of control and 44.15 % of control and 38.48 % of control and 40.13 % of control | Collagen, % of control (single replicates per experiment) (WI‐26 VA4 cells [1]; 3000 nM, 3 µM): 1.63 % of control and 4.15 % of control and 3.62 % of control and 2.86 % of control and 2.82 % of control and 1.71 % of control and 1.95 % of control and 0.62 % of control and 0.64 % of control and 3.58 % of control and 3.93 % of control and 3.45 % of control | Collagen, % of control (single replicates per experiment) (WI‐26 VA4 cells [1]; 10000 nM, 10 µM): 1.68 % of control and 3.44 % of control and 3.88 % of control and 3.59 % of control and 2.23 % of control and 1.83 % of control and 2.08 % of control and 0.30 % of control and 0.13 % of control and 3.69 % of control and 1.88 % of control and 3.26 % of control | CellTiter-Glo % of control (WI‐26 VA4 cells [2]; 3 nM, Experiment #1, replicates, 0.003 µM): 111.30 % of control | CellTiter-Glo % of control (WI‐26 VA4 cells [2]; 3 nM, Experiment #2, replicates, 0.003 µM): 104.68 % of control | CellTiter-Glo % of control (WI‐26 VA4 cells [2]; 10 nM, Experiment #1, replicates, 0.01 µM): 98.22 % of control | CellTiter-Glo % of control (WI‐26 VA4 cells [2]; 10 nM, Experiment #2, replicates, 0.01 µM): 98.21 % of control | CellTiter-Glo % of control (WI‐26 VA4 cells [2]; 30 nM, Experiment #1, replicates, 0.03 µM): 101.69 % of control | CellTiter-Glo % of control (WI‐26 VA4 cells [2]; 30 nM, Experiment #2, replicates, 0.03 µM): 90.92 % of control | CellTiter-Glo % of control (WI‐26 VA4 cells [2]; 100 nM, Experiment #1, replicates, 0.1 µM): 105.18 % of control | CellTiter-Glo % of control (WI‐26 VA4 cells [2]; 100 nM, Experiment #2, replicates, 0.1 µM): 84.56 % of control | CellTiter-Glo % of control (WI‐26 VA4 cells [2]; 300 nM, Experiment #1, replicates, 0.3 µM): 79.41 % of control | CellTiter-Glo % of control (WI‐26 VA4 cells [2]; 300 nM, Experiment #2, replicates, 0.3 µM): 70.77 % of control | CellTiter-Glo % of control (WI‐26 VA4 cells [2]; 1000 nM, Experiment #1, replicates, 1 µM): 62.89 % of control | CellTiter-Glo % of control (WI‐26 VA4 cells [2]; 1000 nM, Experiment #2, replicates, 1 µM): 53.02 % of control | CellTiter-Glo % of control (WI‐26 VA4 cells [2]; 3000 nM, Experiment #1, replicates, 3 µM): 27.33 % of control | CellTiter-Glo % of control (WI‐26 VA4 cells [2]; 3000 nM, Experiment #2, replicates, 3 µM): 23.73 % of control | CellTiter-Glo % of control (WI‐26 VA4 cells [2]; 10000 nM, Experiment #1, replicates, 10 µM): 30.63 % of control | CellTiter-Glo % of control (WI‐26 VA4 cells [2]; 10000 nM, Experiment #2, replicates, 10 µM): 19.94 % of control | CellTiter-Glo % of control (WI‐26 VA4 cells [2]; 30000 nM, Experiment #1, replicates, 30 µM): 20.55 % of control | CellTiter-Glo % of control (WI‐26 VA4 cells [2]; 30000 nM, Experiment #2, replicates, 30 µM): 5.19 % of control | CellTiter-Glo % of control (WI‐26 VA4 cells [2]; 100000 nM, Experiment #1, replicates, 100 µM): 0.39 % of control | CellTiter-Glo % of control (WI‐26 VA4 cells [2]; 100000 nM, Experiment #2, replicates, 100 µM): 0.31 % of control

— article PMC10331583, “Control of fibrosis with enhanced safety via asymmetric inhibition of prolyl‐tRNA synthetase 1” (EMBO Molecular Medicine, 2023)
